# Experimental data taken from the supplement of paper PMC3334620.
# In all, about 33,000 sequences were measured (“E-score (-0.5 to 0.5)”: median about -0.053, highest 2% from about 0.37 on). This is one part of the list.
# Molecular target: Hap1 (UniProt P0CE41)
# Test: PBM E-score (8-mer binding enrichment) (E-score (-0.5 to 0.5)); higher = stronger / more preferred TF binding; most listed sequences are background and not binding sites
# Settings: protein concentration: 200 nM; construct: GST-DNA-binding domain
# Procedure, shortened: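 Yeast transcription factors carrying a GST tag, as full-length proteins or DNA-binding domains, were produced by PURExpress in vitro transcription/translation. About 100-200 nM protein was applied to universal all-10-mer Agilent arrays, double-stranded by primer extension on fresh or once-stripped slides. Bound protein was detected with fluorescent anti-GST, and scans were normalised with masliner. The Universal PBM Analysis Suite gave each ungapped eight-base word, pooled with its reverse complement, an E-score, a modified Wilcoxon-Mann-Whitney statistic.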
# Chain of UniProt P0CE41 (P0CE41 whole entry): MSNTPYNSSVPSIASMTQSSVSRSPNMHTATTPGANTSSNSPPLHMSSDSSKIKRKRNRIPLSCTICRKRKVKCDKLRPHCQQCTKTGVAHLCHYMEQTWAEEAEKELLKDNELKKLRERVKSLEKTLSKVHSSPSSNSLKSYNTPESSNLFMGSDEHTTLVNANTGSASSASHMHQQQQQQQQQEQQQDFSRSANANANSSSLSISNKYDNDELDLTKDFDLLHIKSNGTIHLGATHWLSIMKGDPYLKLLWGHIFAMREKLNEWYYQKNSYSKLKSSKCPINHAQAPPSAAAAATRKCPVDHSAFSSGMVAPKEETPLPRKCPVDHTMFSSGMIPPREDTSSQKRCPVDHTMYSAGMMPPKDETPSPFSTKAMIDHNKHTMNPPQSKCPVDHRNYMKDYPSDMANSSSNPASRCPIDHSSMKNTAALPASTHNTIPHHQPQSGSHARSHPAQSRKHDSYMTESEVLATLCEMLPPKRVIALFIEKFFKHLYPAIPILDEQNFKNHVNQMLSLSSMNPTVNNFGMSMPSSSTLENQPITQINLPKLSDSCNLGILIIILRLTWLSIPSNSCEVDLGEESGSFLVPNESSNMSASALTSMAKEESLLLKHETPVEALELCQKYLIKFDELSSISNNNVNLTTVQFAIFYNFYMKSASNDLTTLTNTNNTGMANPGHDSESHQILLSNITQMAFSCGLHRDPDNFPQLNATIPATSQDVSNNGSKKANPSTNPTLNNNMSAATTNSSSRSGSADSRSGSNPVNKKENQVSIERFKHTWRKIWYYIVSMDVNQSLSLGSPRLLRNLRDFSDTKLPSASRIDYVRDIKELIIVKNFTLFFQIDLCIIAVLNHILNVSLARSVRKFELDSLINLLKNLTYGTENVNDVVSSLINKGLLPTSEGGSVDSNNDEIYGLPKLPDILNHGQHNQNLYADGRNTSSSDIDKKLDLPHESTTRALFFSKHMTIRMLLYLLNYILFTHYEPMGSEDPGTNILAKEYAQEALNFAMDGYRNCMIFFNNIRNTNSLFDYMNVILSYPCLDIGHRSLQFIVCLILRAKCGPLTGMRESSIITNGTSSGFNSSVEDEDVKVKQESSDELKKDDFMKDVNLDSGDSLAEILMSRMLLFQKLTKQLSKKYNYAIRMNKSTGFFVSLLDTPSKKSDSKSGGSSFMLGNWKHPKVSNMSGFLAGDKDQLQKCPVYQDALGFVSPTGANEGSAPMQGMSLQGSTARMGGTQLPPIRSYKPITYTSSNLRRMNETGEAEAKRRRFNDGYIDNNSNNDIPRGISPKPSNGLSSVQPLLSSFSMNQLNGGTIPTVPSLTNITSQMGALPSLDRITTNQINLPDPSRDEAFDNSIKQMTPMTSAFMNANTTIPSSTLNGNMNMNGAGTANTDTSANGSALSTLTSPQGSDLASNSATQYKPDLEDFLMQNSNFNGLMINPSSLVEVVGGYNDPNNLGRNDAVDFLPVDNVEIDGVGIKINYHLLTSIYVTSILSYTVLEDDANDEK
row,Sequence,PBM E-score
1,AGTGCATG,-0.216
2,CCTAGCGC,-0.0954
3,AACACACT,-0.292
4,CAACCGTC,0.0195
5,ACTTTCAC,-0.0742
6,GGCACGTA,-0.127
7,AGTCGGAG,0.174
8,GCAACGGC,0.152
9,CTTTCGAC,-0.0279
10,ATACGGGG,0.119
11,ATCAGAAC,-0.025
12,AAACTGGC,-0.195
13,AGCTGGCA,-0.219
14,AGGGGGTA,-0.2
15,CCTTGCGA,-0.0737
16,ACACATTA,-0.223
17,ACGCATAA,0.00131
18,GGCCCTCA,-0.0657
19,AGCCCTGG,-0.267
20,GCCACTAC,-0.042
21,AAGAGGTA,0.138
22,GACATCTC,0.0929
23,CGTTGTAG,0.114
24,AACGCTTA,-0.1
25,TATGCGAA,0.0244

row,Sequence,PBM E-score
1,CTTAGGCA,-0.22
2,ACCGTCAC,0.0721
3,CAAAGGAA,-0.129
4,AAGTCTAT,-0.185
5,CATTTGGG,-0.054
6,CGCTATTA,0.164
7,AGGTATCG,0.253
8,CTGGGGTC,-0.172
9,CACCAATA,-0.149
10,CGCACGTC,0.0527
11,GCAATTCA,-0.0129
12,GAGCCGTA,0.237
13,CCCCACTC,-0.186
14,AGCTGGCG,-0.089
15,ACCTGCTC,0.149
16,CATGTAAC,-0.0354
17,TAGAGTGA,-0.0303
18,AGACTAAT,-0.0594
19,ACCAGATA,-0.0999
20,AGCAATTA,0.121
21,AACTGAGG,-0.205
22,GGTGAACA,-0.211
23,AATGACTG,-0.28
24,ACGTTCCA,-0.0379
25,ACGCAATC,0.0706

row,Sequence,PBM E-score
1,CCTGGACG,-0.139
2,AACTAGGT,0.16
3,GTAACTAC,-0.0248
4,AAATCTCT,-0.0274
5,CGACAGAC,-0.0306
6,CGGAGGCA,0.209
7,CGAAGCCA,-0.133
8,AGGTACAA,-0.266
9,ATTCCGAC,0.307
10,GCGCCTTA,-0.105
11,AACCACAA,-0.0525
12,GACCCCGC,0.134
13,ACTATTTG,0.00158
14,AGTGGACG,0.0359
15,AACCTGTA,-0.192
16,CTTGGCTA,-0.361
17,CCACCCTC,0.0653
18,CCCAGGAA,-0.174
19,ATGCCGAA,0.346
20,ACGTTGCA,-0.207
21,GAAGACGA,-0.025
22,ATTCGAAT,-0.2
23,CACTTTTA,-0.098
24,AATCCGGA,0.433
25,AATGCGTG,-0.165

row,Sequence,PBM E-score
1,CGCCTCAA,-0.0947
2,CGTGTGTA,-0.0443
3,AACGCGAA,0.121
4,GTCGAGTA,-0.115
5,GTTAGACA,0.0281
6,ACGCCGCC,0.256
7,AGTGAGTA,-0.131
8,GCGCGCAC,0.187
9,CGGTGACG,0.0359
10,CTCATCTC,0.0439
11,ATAACTAT,-0.131
12,GGCATGAC,-0.201
13,TACTAATA,0.0975
14,AAGGTCTA,-0.0867
15,AATCGCAT,0.128
16,TATTTGAA,-0.0491
17,CCAACACA,-0.094
18,ATTGAAGC,0.0958
19,ACTCATAC,-0.0998
20,CTTAGACA,-0.282
21,CTAGTAGC,-0.108
22,CCAGCGGC,0.0619
23,CCTTAGCG,-0.0884
24,GCCCAGAA,-0.0212
25,GCCTTGAC,-0.13

row,Sequence,PBM E-score
1,AAAAAGGT,-0.187
2,AAGTAACA,-0.178
3,CCGCTGAA,-0.00989
4,CCTGCTCA,-0.15
5,ACTACGAG,-0.0984
6,GCGGCGAA,0.229
7,TAGTAGAA,0.0227
8,ATTGTAGA,-0.148
9,GGGCTTAA,0.296
10,AGTTATTC,-0.0219
11,ATACAGTG,-0.27
12,ACTTGGTA,-0.215
13,CTGGGGAC,-0.345
14,GGGGTACC,-0.00107
15,AGGGTAGG,-0.161
16,AGTGGTTA,-0.171
17,CCATACGC,-0.125
18,AAGCCTTA,-0.0914
19,AAAGACTG,-0.272
20,GTCGTGCA,-0.209
21,ACGGAGCA,0.271
22,ACTTTACT,-0.162
23,CAACTGGC,-0.145
24,CCTCCACC,-0.0838
25,GAGATCGA,0.0587

row,Sequence,PBM E-score
1,GCTGACCC,-0.0201
2,ACGATCAA,-0.167
3,TGCGCGAA,0.0575
4,TCCATCGA,-0.0782
5,GGTAGAGA,-0.026
6,AAATCGCG,0.103
7,CAATACCA,-0.091
8,TCTACTAA,-0.198
9,CATATGCG,0.031
10,AACCTCAA,-0.103
11,GGCTCTTA,0.169
12,ATTTACCG,0.376
13,GTCCGGTA,0.419
14,CGTATTTC,0.176
15,ATGGATCC,0.153
16,GATTCGAC,-0.148
17,ATGGGGTA,0.0604
18,TCGGAAGA,0.199
19,GTACCAAA,-0.0856
20,GGGTTGTA,0.0474
21,CGAGGACG,0.15
22,CGTGTCGC,0.258
23,ACAGTCAG,-0.274
24,CACCAACC,-0.00494
25,ACAATTAA,-0.00929

row,Sequence,PBM E-score
1,CACACTGG,-0.156
2,AGAAGCGA,-0.00823
3,CAATCAGA,-0.209
4,AAGATGAG,-0.313
5,GAGCTAGC,-0.127
6,CTCGCTAC,-0.108
7,CCAAGGGG,-0.24
8,GATAGTGA,-0.0353
9,GAGCCATA,-0.127
10,AAACCATA,-0.069
11,AAGAGCAC,-0.227
12,CCACGCGA,-0.0313
13,AATAACGT,0.0765
14,CGGGAGTC,0.0637
15,CGTTAACA,0.00755
16,ATAACAGG,-0.159
17,AACACTTA,0.00555
18,CATGGATA,-0.122
19,GCGAAAAC,-0.0632
20,CGAGTTGC,-0.053
21,ATCGACCG,0.265
22,GCCTCACA,-0.263
